Among the data in article PMC4242493 are binding signal (normalized occupancy) values, retold here.

Some of the results follow. The list includes weakly bound sequences.

In the test the target is MaxL homodimer (UniProt P61244). The test can be described thus: universal protein-binding microarray (PBM). The conditions noted are these: PBS-based mixture, 10 nM His-tagged protein dimer, 2% milk, 200 ng/uL BSA, 50 ng/uL salmon testes DNA, 0.02% TX-100; detection with Alexa 488 anti-His …; high values mean tight binding; most listed sequences are background and not binding sites; double strand, one strand shown.
Sequence of UniProt P61244 (P61244 whole entry): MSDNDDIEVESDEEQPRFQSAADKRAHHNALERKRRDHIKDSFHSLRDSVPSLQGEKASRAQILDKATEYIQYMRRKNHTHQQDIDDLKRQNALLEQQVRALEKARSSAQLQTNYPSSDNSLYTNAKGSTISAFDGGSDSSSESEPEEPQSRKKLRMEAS
On to GTGGAATA, for which the binding signal (normalized occupancy) came to 0.0822.
As for CAATGCCC, the binding signal (normalized occupancy) was 0.0771.
In the case of CCAGCAAC, the binding signal (normalized occupancy) worked out at 0.0739.
On to AGCAACAA, for which the binding signal (normalized occupancy) was determined as 0.0698.
For AAGCTTAG, the binding signal (normalized occupancy) stood at 0.0693.
With ATCGTAAC, the binding signal (normalized occupancy) was 0.0738.
With AAACCGTT, the binding signal (normalized occupancy) worked out at 0.075.
As for ATGCAGAC, the binding signal (normalized occupancy) worked out at 0.0785.
To TCAGTGCA belongs 0.0743.
As to AACGCTGC, the binding signal (normalized occupancy) was found to be 0.0786.
With GACGCCCC, the binding signal (normalized occupancy) worked out at 0.0729.
As to ATCACGAC, the binding signal (normalized occupancy) was 0.0753.
As for GAGCCACA, the binding signal (normalized occupancy) worked out at 0.0769.
With CAACCAGA, the binding signal (normalized occupancy) came to 0.0757.
As for ACAGATAT, the binding signal (normalized occupancy) was found to be 0.0819.
To CCGTGGAC belongs 0.0739; to TGACAGAA, 0.0768; to ATCCTTTG, 0.0778.
For the sequence GCATAAAA, the binding signal (normalized occupancy) amounted to 0.0781.
For CAAAATTA, the binding signal (normalized occupancy) turned out to be 0.0735.
In the case of ATGCGTTC, the binding signal (normalized occupancy) came out at 0.0856.
Take GCCTAGAC: the binding signal (normalized occupancy) stood at 0.0706.
Take CCCTAGCG: the binding signal (normalized occupancy) turned out to be 0.0722.
Regarding ATCCGGCG, the binding signal (normalized occupancy) came out at 0.0703.
In the case of ACGATCCT, the binding signal (normalized occupancy) was 0.0794.
AACTCTTG: the binding signal (normalized occupancy) came to 0.0726.
In the case of CTCTTTTC it was 0.0744.
Consider GAGGATAC, for which the binding signal (normalized occupancy) was determined as 0.0836.
For GTGCGTAA, the binding signal (normalized occupancy) was found to be 0.078.
For the sequence CCATCAGG, the binding signal (normalized occupancy) stood at 0.0773.
In the case of AAGCGGAG it was 0.067.
In the case of ACGCGCTG it was 0.077; in that of ACATACTG, 0.0824; in that of AAAGCGTG, 0.11.
For ACTAATTG, the binding signal (normalized occupancy) stood at 0.0791.
As for CCAAGTTC, the binding signal (normalized occupancy) was 0.0732.
To GTCAATCA belongs 0.0778; to ATATTACG, 0.0853.
In the case of CCCCAATC, the binding signal (normalized occupancy) turned out to be 0.078.
In the case of CACAGTCG it was 0.0705.
Consider GACCATCC, for which the binding signal (normalized occupancy) came out at 0.0844.
Turning to AGTAAGAG, the binding signal (normalized occupancy) was determined as 0.0747.
On to ACAGTCCC, for which the binding signal (normalized occupancy) turned out to be 0.0707.
As for ACCTCTCC, the binding signal (normalized occupancy) was determined as 0.0775.
Turning to GAACGGCA, the binding signal (normalized occupancy) was 0.0699.
On to AGTATTAG, for which the binding signal (normalized occupancy) is 0.0714.
With CAAGTTAA, the binding signal (normalized occupancy) is 0.071.
Turning to AGGGAGAT, the binding signal (normalized occupancy) was determined as 0.0742.
Consider CAGAATAG, for which the binding signal (normalized occupancy) stood at 0.0739.
For GTAGAATA, the binding signal (normalized occupancy) is 0.0826.
Regarding CACGGGAC, the binding signal (normalized occupancy) was determined as 0.0828.
To AGTACTGC belongs 0.076; to AAACTGCA, 0.075.
Turning to AAGGATAC, the binding signal (normalized occupancy) is 0.0777.
Regarding ATACACGC, the binding signal (normalized occupancy) worked out at 0.102.
In the case of CCAGCTGC, the binding signal (normalized occupancy) was 0.0673.
Consider CACATCTA, for which the binding signal (normalized occupancy) was determined as 0.084.
As to AGCAGTGC, the binding signal (normalized occupancy) was found to be 0.0756.
AGCGTGTC: the binding signal (normalized occupancy) was found to be 0.0932.
As for AACTCTTC, the binding signal (normalized occupancy) amounted to 0.0724.
In the case of AGTCGTAT it was 0.0756.
Turning to CGTTTCAC, the binding signal (normalized occupancy) was 0.0736.
Regarding CGCAACCA, the binding signal (normalized occupancy) was found to be 0.0787.
For the sequence CACCCTCC, the binding signal (normalized occupancy) is 0.0765.
Consider CCTATCTC, for which the binding signal (normalized occupancy) came to 0.0785.
For the sequence AGTGCGAG, the binding signal (normalized occupancy) was 0.073.
To AGTCTGAA belongs 0.0685.
As for AAAGGCAG, the binding signal (normalized occupancy) is 0.0731.
Turning to AGTAGGAT, the binding signal (normalized occupancy) stood at 0.076.
Regarding AGGAAACC, the binding signal (normalized occupancy) was found to be 0.0712.
GAGATACC: the binding signal (normalized occupancy) was 0.0724.
In the case of AAAGCCTC, the binding signal (normalized occupancy) was 0.071.
To GACCCTTA belongs 0.0785; to GACGTAGA, 0.0773.
As to ATAGGCGC, the binding signal (normalized occupancy) stood at 0.0783.
In the case of CCAACTGG it was 0.0679.
On to ACAAGACC, for which the binding signal (normalized occupancy) was found to be 0.0734.
In the case of AATTAGCC it was 0.0676.
For the sequence AAAAGGAA, the binding signal (normalized occupancy) came out at 0.0699.
As to ATGTCCCC, the binding signal (normalized occupancy) was determined as 0.0822.
AAGTAATA: the binding signal (normalized occupancy) worked out at 0.0798.
As to GCATTCAA, the binding signal (normalized occupancy) was found to be 0.0748.
With CCTGGCCG, the binding signal (normalized occupancy) was determined as 0.0702.
Regarding ATCATGAA, the binding signal (normalized occupancy) stood at 0.0779.
As for GGCCCGTA, the binding signal (normalized occupancy) came to 0.0715.
Consider TCGCAAGA, for which the binding signal (normalized occupancy) amounted to 0.0725.
In the case of ATCCAGGA, the binding signal (normalized occupancy) stood at 0.076.
For ACCATATA, the binding signal (normalized occupancy) worked out at 0.0814.
In the case of ATGGGTCG it was 0.0768.
Take AGGTAGCA: the binding signal (normalized occupancy) turned out to be 0.0778.
For CTGATCTC, the binding signal (normalized occupancy) came to 0.0735.
As to AAAGCTTC, the binding signal (normalized occupancy) was 0.0688.
In the case of GCCCCACA it was 0.0784; in that of AGATGCCC, 0.0786; in that of CCGTCGGC, 0.0671.
AGGACTCC: the binding signal (normalized occupancy) was 0.0697.
Take ACCCGAAA: the binding signal (normalized occupancy) worked out at 0.0737.
Take CGTCCAGC: the binding signal (normalized occupancy) was determined as 0.0725.
As for AAAGCCTA, the binding signal (normalized occupancy) came to 0.0705.
In the case of CGATGAGA it was 0.078; in that of GACGCTGC, 0.0724; in that of CTTCTTCA, 0.0712.
AGTTAGGA: the binding signal (normalized occupancy) was determined as 0.0725.
To ACACCGAT belongs 0.0769; to AGAGATGA, 0.0744; to ATCACTCA, 0.0792.
In the case of AAGCTATG, the binding signal (normalized occupancy) was 0.0712.
GAACTCTC: the binding signal (normalized occupancy) is 0.071.
On to ACCAGCTC, for which the binding signal (normalized occupancy) worked out at 0.0671.
CCATCACC: the binding signal (normalized occupancy) is 0.0798.
